In the supplement of paper PMC8728848:
The other results are listed elsewhere or left out.

What was measured:
Assay in all cases: glycan array binding signal (z-score within array); higher = stronger binding
Conditions in all cases: glycan notation: IUPAC condensed, linker removed
[1] = molecular target: Neu5Ac(a2-6)Gal(b1-4)GlcNAc(b1-6)GalNAc
In short: (§1)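 Arrays were curated from the Consortium for Functional Glycomics database, 3228 in total, and kept only where the protein sequence was available. Binding is expressed as a within-array Z-score. This score was averaged across arrays of the same protein sequence at different concentrations or buffers and across linkers, and negative values can be read as non-binding.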

[2] = molecular target: Neu5Ac(a2-6)Gal(b1-4)GlcNAc(b1-6)[Gal(b1-3)GlcNAc(b1-3)]Gal(b1-4)Glc
In short: as §1

[3] = molecular target: Neu5Ac(a2-6)Gal(b1-4)GlcNAc(b1-6)[Gal(b1-3)]GalNAc
In short: as §1

[4] = molecular target: Neu5Ac(a2-6)Gal(b1-4)GlcNAc6S
In short: as §1

[5] = molecular target: Neu5Ac(a2-6)GalNAc
In short: as §1

[6] = molecular target: Neu5Ac(a2-6)GalNAc(b1-4)GlcNAc
In short: as §1

[7] = molecular target: Neu5Ac(a2-6)GalNAc(b1-4)GlcNAc6S
In short: as §1

[8] = molecular target: Neu5Ac(a2-6)GlcNAc(b1-4)GlcNAc
In short: as §1

[9] = molecular target: Neu5Ac(a2-6)GlcNAc(b1-4)GlcNAc(b1-4)GlcNAc
In short: as §1

[10] = molecular target: Neu5Ac(a2-8)Neu5Ac
In short: as §1

[11] = molecular target: Neu5Ac(a2-8)Neu5Ac(a2-3)Gal(b1-3)GalNAc(b1-4)[Neu5Ac(a2-3)]Gal(b1-4)Glc
In short: as §1

[12] = molecular target: Neu5Ac(a2-8)Neu5Ac(a2-3)Gal(b1-3)GalNAc(b1-4)[Neu5Ac(a2-8)Neu5Ac(a2-3)]Gal(b1-4)Glc
In short: as §1

[13] = molecular target: Neu5Ac(a2-8)Neu5Ac(a2-3)Gal(b1-4)Glc
In short: as §1

[14] = molecular target: Neu5Ac(a2-8)Neu5Ac(a2-3)Gal(b1-4)GlcNAc
In short: as §1

[15] = molecular target: Neu5Ac(a2-8)Neu5Ac(a2-3)[Gal(b1-3)GalNAc(b1-4)]Gal(b1-4)Glc
In short: as §1

[16] = molecular target: Neu5Ac(a2-8)Neu5Ac(a2-3)[GalNAc(b1-4)]Gal(b1-4)Glc
In short: as §1

[17] = molecular target: Neu5Ac(a2-8)Neu5Ac(a2-8)Neu5Ac
In short: as §1

[18] = molecular target: Neu5Ac(a2-8)Neu5Ac(a2-8)Neu5Ac(a2-3)Gal(b1-4)Glc
In short: as §1

[19] = molecular target: Neu5Ac(a2-8)Neu5Ac(a2-8)Neu5Ac(a2-3)[Gal(b1-3)GalNAc(b1-4)]Gal(b1-4)Glc
In short: as §1

[20] = molecular target: Neu5Ac(a2-8)Neu5Ac(a2-8)Neu5Ac(a2-3)[GalNAc(b1-4)]Gal(b1-4)Glc
In short: as §1

[21] = molecular target: Neu5Ac(a2-8)Neu5Ac(a2-8)Neu5Ac(a2-8)Neu5Ac(a2-3)[GalNAc(b1-4)]Gal(b1-4)Glc
In short: as §1

[22] = molecular target: Neu5Ac(a2-8)Neu5Gc(a2-3)Gal(b1-4)GlcNAc
In short: as §1

[23] = molecular target: Neu5Ac(b2-6)Gal(b1-4)GlcNAc
In short: as §1

[24] = molecular target: Neu5Ac(b2-6)GalNAc
In short: as §1

[25] = molecular target: Neu5Ac9Ac(a2-3)Gal(b1-3)GlcNAc
In short: as §1

[26] = molecular target: Neu5Ac9Ac(a2-3)Gal(b1-4)GlcNAc
In short: as §1

[27] = molecular target: Neu5Ac9Ac(a2-6)Gal(b1-4)GlcNAc
In short: as §1

[28] = molecular target: Neu5Gc(a2-3)Gal(b1-3)GlcNAc
In short: as §1

[29] = molecular target: Neu5Gc(a2-3)Gal(b1-3)[Fuc(a1-4)]GlcNAc
In short: as §1

[30] = molecular target: Neu5Gc(a2-3)Gal(b1-4)Glc
In short: as §1

[31] = molecular target: Neu5Gc(a2-3)Gal(b1-4)GlcNAc
In short: as §1

[32] = molecular target: Neu5Gc(a2-3)Gal(b1-4)GlcNAc(b1-3)Gal(b1-4)GlcNAc(b1-2)Man(a1-3)[Neu5Gc(a2-3)Gal(b1-4)GlcNAc(b1-3)Gal(b1-4)GlcNAc(b1-2)Man(a1-6)]Man(b1-4)GlcNAc(b1-4)GlcNAc
In short: as §1

[33] = molecular target: Neu5Gc(a2-3)Gal(b1-4)[Fuc(a1-3)]GlcNAc
In short: as §1

[34] = molecular target: Neu5Gc(a2-6)Gal(b1-4)GlcNAc
In short: as §1

[35] = molecular target: Neu5Gc(a2-6)GalNAc
In short: as §1

[36] = molecular target: Neu5Gc(a2-8)Neu5Ac(a2-3)Gal(b1-4)GlcNAc
In short: as §1

[37] = molecular target: Neu5Gc(a2-8)Neu5Gc(a2-3)Gal(b1-4)GlcNAc
In short: as §1

[38] = molecular target: Neu5Gc(a2-8)Neu5Gc(a2-3)Gal(b1-4)GlcNAc(b1-3)Gal(b1-4)GlcNAc
In short: as §1

B1: Cohesin-hDC-ASGPR (Homo sapiens) (protein)
chain: LDDLDAVRIKVDTVNAKPGDTVRIPVRFSGIPSKGIANCDFVYSYDPNVLEIIEIEPGDIIVDPNPDKSFDTAVYPDRKIIVFLFAEDSGTGAYAITKDGVFATIVAKVKEGAPNGLSVIKFVEVGGFANNDLVEQKTQFFDGGANVGDTTEPATPTTPVTTPTTTDDLDAASQNSKFQRDLVTLRTDFSNFTSNTVAEIQALTSQGSSLEETIASLKAEVEGFKQERQAGVSELQEHTTQKAHLGHCPHCPSVCVPVHSEMLLRVQQLVQDLKKLTCQVATLNNNASTEGTCCPVNWVEHQDSCYWFSHSGMSWAEAEKYCQLKNAHLVVINSREEQNFVQKYLGSAYTWMGLSDPEGAWKWVDGTDYATGFQNWKPGQPDDWQGHGLGGGEDCAHFHPDGRWNDDVCQRPYHWVCEAGLGQTSQESHHHHHH
glycan array binding signal (z-score) [1]: -0.461
glycan array binding signal (z-score) [2]: -0.484
glycan array binding signal (z-score) [3]: -0.393
glycan array binding signal (z-score) [4]: -0.359
glycan array binding signal (z-score) [5]: 2.69
glycan array binding signal (z-score) [6]: 2.6
glycan array binding signal (z-score) [7]: 2.3
glycan array binding signal (z-score) [8]: -0.492
glycan array binding signal (z-score) [9]: -0.52
glycan array binding signal (z-score) [10]: -0.501
glycan array binding signal (z-score) [11]: -0.451
glycan array binding signal (z-score) [12]: -0.482
glycan array binding signal (z-score) [13]: -0.509
glycan array binding signal (z-score) [14]: -0.505
glycan array binding signal (z-score) [15]: 3.87
glycan array binding signal (z-score) [16]: 2.47
glycan array binding signal (z-score) [17]: -0.522
glycan array binding signal (z-score) [18]: -0.519
glycan array binding signal (z-score) [19]: -0.455
glycan array binding signal (z-score) [20]: 2.45
glycan array binding signal (z-score) [21]: 2.95
glycan array binding signal (z-score) [22]: -0.521
glycan array binding signal (z-score) [23]: -0.488
glycan array binding signal (z-score) [24]: 1.32
glycan array binding signal (z-score) [25]: 0.093
glycan array binding signal (z-score) [26]: -0.49
glycan array binding signal (z-score) [27]: -0.357
glycan array binding signal (z-score) [28]: -0.406
glycan array binding signal (z-score) [29]: -0.285
glycan array binding signal (z-score) [30]: -0.459
glycan array binding signal (z-score) [31]: -0.279
glycan array binding signal (z-score) [32]: -0.416
glycan array binding signal (z-score) [33]: 2.01
glycan array binding signal (z-score) [34]: -0.392
glycan array binding signal (z-score) [35]: 2.81
glycan array binding signal (z-score) [36]: -0.517
glycan array binding signal (z-score) [37]: -0.515
glycan array binding signal (z-score) [38]: -0.506
